PubChem BioAssay (NCI)
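Interpolation was linear, between the two tested concentrations surrounding the appropriate level; five concentrations were tested over 48 hours in 96-well plates. GI50: concentration for 50% inhibition of growth. Definition used: TGI = concentration required for complete inhibition of growth.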

Tested on: NCI-H322M lung
Assay: NCI tumour cell line growth inhibition, 48 h

Row | Compound | GI50 | TGI
1 | O=C1c2c(c3c4cc(Br)ccc4[nH]c3c3ccc4ccccc4c23)C(=O)N1CCN1CCNCC1 | 2100 nM | 5090 nM
2 | O=C(Nc1ccc(Cl)cc1)Nc1nc2ccc([N+](=O)[O-])cc2s1 | 936 nM | 3450 nM
